± gives the standard deviation of the averaged measurements. Whole data set: some 33,000 sequences, median “E-score (dimensionless, -0.5 to 0.5)” near -0.046, cut for the highest 2% near 0.36. This is one part of the list.
The sequences below were run on T1, SpTbr T-box DNA-binding domain (GST fusion) (assay: PBM E-score of 8-mer (E-score (dimensionless, -0.5 to 0.5)); Tbr is Tbrain of the sea star Patiria miniata (Pm) or the sea urchin Strongylocentrotus purpuratus (Sp); higher = stronger binding preference; most listed sequences are background and not binding sites). Settings: the construct has about 5 more residues each side.
T1 sequence: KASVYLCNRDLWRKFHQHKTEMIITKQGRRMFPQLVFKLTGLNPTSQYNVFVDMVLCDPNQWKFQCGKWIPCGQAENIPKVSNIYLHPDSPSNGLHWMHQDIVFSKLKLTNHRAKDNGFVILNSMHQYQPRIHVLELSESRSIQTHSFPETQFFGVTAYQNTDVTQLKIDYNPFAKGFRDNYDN
Summary of the method: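 Using the Universal PBM Analysis Suite, every ungapped 8-mer received an enrichment E-score averaged over duplicate arrays. Probe intensities came from double-stranded Universal Agilent oligonucleotide arrays incubated with 200 nM GST-fused Tbr T-box DNA-binding domain in PBS (pH 7.5). That protein was expressed in BL21 E. coli at 20 °C and purified by glutathione affinity chromatography.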

In order of rising “PBM E-score of 8-mer” value:
1. ATTCCCCC  -0.33 ± 0.043
2. AATGCCCC  -0.326 ± 0.004
3. CATTCCTA  -0.321 ± 0.028
4. CTGGGCCC  -0.315 ± 0.043
5. AGACCCTA  -0.307 ± 0.055
6. GATGCAGC  -0.276 ± 0.024
7. AATTGCCT  -0.267 ± 0.087
8. AATACTGC  -0.263 ± 0.019
9. GGTTTGTA  -0.247 ± 0.043
10. CATAGAAG  -0.245 ± 0.024
11. CGTAGGGC  -0.243 ± 0.014
12. AATTCCTG  -0.24 ± 0.065
13. ATGGCTTG  -0.238 ± 0.012
14. AGCCAATA  -0.235 ± 0.0099
15. AATCCATT  -0.2343 ± 0.0016
16. AGTTACGG  -0.232 ± 0.0032
17. TATGTCCA  -0.225 ± 0.028
18. CTACGAGC  -0.218 ± 0.049
19. CCATGGGG  -0.216 ± 0.029
20. ACGGTCTA  -0.21 ± 0.035
21. ATATTTTC  -0.194 ± 0.082
22. CAACCGCA  -0.193 ± 0.066
23. AGCCTAGA  -0.192 ± 0.025
24. ATCCACGA  -0.187 ± 0.024
25. AGACCCCA  -0.186 ± 0.045
26. ATTACAAA  -0.181 ± 0.0085
27. TCATTCCA  -0.178 ± 0.013
28. AGGATCGG  -0.176 ± 0.02
29. GGAATCTA  -0.174 ± 0.0019
30. ATAAGAAG  -0.157 ± 0.038
31. ATGAACCC  -0.156 ± 0.0065
32. ATGATCTC  -0.154 ± 0.0075
33. ATTCAGCG  -0.153 ± 0.038
34. GTACCAGA  -0.149 ± 0.042
35. ACAAGAGT  -0.149 ± 0.024
36. GTGCAGTA  -0.146 ± 0.044
37. GCTCCGGA  -0.139 ± 0.0069
38. ATACGAAA  -0.138 ± 0.078
39. AGGTTCTA  -0.136 ± 0.037
40. ACGTATTG  -0.135 ± 0.026
41. ATACGCCC  -0.13 ± 0.051
42. AAGGCCTC  -0.128 ± 0.049
43. CAAATATC  -0.126 ± 0.012
44. AAATAGTC  -0.124 ± 0.026
45. AGTAAATA  -0.121 ± 0.066
46. TCCCTCCA  -0.12 ± 0.015
47. ACAGAGGA  -0.119 ± 0.11
48. TAAATCAA  -0.119 ± 0.082
49. AACGACCG  -0.117 ± 0.016
50. CAATTTCC  -0.117 ± 0.092
51. ATTTACTG  -0.115 ± 0.0072
52. AGACCCAT  -0.115 ± 0.058
53. CTCCCTGA  -0.114 ± 0.0056
54. ATATTGAG  -0.112 ± 0.033
55. ACGGGACT  -0.1061 ± 0.00023
56. GATAAATC  -0.101 ± 0.022
57. TGAGCCCA  -0.101 ± 0.072
58. GCAGCAAC  -0.0993 ± 0.071
59. TGGTTTAA  -0.0979 ± 0.037
60. ATGTTCAG  -0.0927 ± 0.015
61. CGGCCTTC  -0.0913 ± 0.022
62. AAGTATAA  -0.0883 ± 0.04
63. AATTGGGA  -0.0875 ± 0.07
64. CGTACTTA  -0.0819 ± 0.045
65. CAGTTACC  -0.0815 ± 0.014
66. CGGCACAA  -0.0814 ± 0.021
67. ACCGGAGG  -0.0804 ± 0.00089
68. CCCGTACA  -0.0732 ± 0.11
69. CAACTAGG  -0.0728 ± 0.056
70. CACTCCCC  -0.072 ± 0.14
71. CATTACTA  -0.0718 ± 0.0035
72. GATAGCTA  -0.0694 ± 0.089
73. ACTCAAGA  -0.068 ± 0.0055
74. AGGCCGAT  -0.0669 ± 0.039
75. AAGCTAAC  -0.0669 ± 0.036
76. CAGCGGTA  -0.0664 ± 0.054
77. CCGTCTTC  -0.0648 ± 0.033
78. GAGGGGGC  -0.0623 ± 0.0023
79. ACGGAGAA  -0.0612 ± 0.022
80. ATGTATTG  -0.0608 ± 0.086
81. ACCAGGGG  -0.0602 ± 0.042
82. GCCGTAAC  -0.06 ± 0.051
83. GACCCACA  -0.0594 ± 0.081
84. GTCTCATA  -0.0571 ± 0.0098
85. CCATGTAC  -0.0564 ± 0.012
86. AATGCGCA  -0.0544 ± 0.062
87. AACTTCCA  -0.0542 ± 0.021
88. CGACGCTC  -0.0449 ± 0.04
89. CAATCTTC  -0.0401 ± 0.022
90. ATCTCTGC  -0.0381 ± 0.01
91. TCGAGGCA  -0.038 ± 0.044
92. ACGGATCG  -0.0367 ± 0.057
93. AAGTCTTC  -0.0365 ± 0.052
94. CAAGCAGC  -0.0345 ± 0.044
95. GACCGCCA  -0.0343 ± 0.015
96. ATCTCGTG  -0.0327 ± 0.046
97. CTACCTGA  -0.0289 ± 0.013
98. AGCGCTGG  -0.0187 ± 0.052
99. AAATACGC  -0.0158 ± 0.019
100. AACAATAC  -0.0152 ± 0.036
101. ATACATCC  -0.0137 ± 0.00069
102. AGCAACAG  -0.0121 ± 0.0042
103. CATTTTTC  -0.0118 ± 0.076
104. CAGACAGC  -0.00462 ± 0.1
105. ATGAGACG  -0.00405 ± 0.013
106. ACGCTGTC  -0.00162 ± 0.016
107. GAAATGGC  0.00243 ± 0.03
108. AACTTGGG  0.0123 ± 0.019
109. ACTCCTTA  0.0135 ± 0.0089
110. CAGGTATC  0.0197 ± 0.087
111. GAAATCAA  0.0239 ± 0.12
112. CGATTCGA  0.0251 ± 0.022
113. GAGCTGGA  0.026 ± 0.004
114. CACTCTGG  0.0305 ± 0.029
115. AGATGTTC  0.0355 ± 0.018
116. CGACTGAC  0.0364 ± 0.013
117. ACTAATAC  0.0389 ± 0.009
118. ATCACTCC  0.0406 ± 0.077
119. GCCCACAA  0.0434 ± 0.036
120. AACTAACC  0.0447 ± 0.049
121. CAAGCCAC  0.0467 ± 0.0027
122. CCGCCCGA  0.0486 ± 0.086
123. CAGCCGGA  0.05 ± 0.018
124. GCACGGAC  0.0505 ± 0.0086
125. ACCTAAGT  0.0511 ± 0.0061
126. CGGGAGCA  0.0513 ± 0.026
127. AGCTCGAA  0.058 ± 0.016
128. CAATGGCG  0.0595 ± 0.0016
129. ACAAGAGC  0.061 ± 0.026
130. AAATCGAG  0.0633 ± 0.0084
131. CCGCGCAA  0.0651 ± 0.0034
132. CGCGTCTA  0.0666 ± 0.015
133. AGGTTGTC  0.071 ± 0.0059
134. TCGAATCA  0.0875 ± 0.038
135. ACGCCGCA  0.0908 ± 0.075
136. AGACCCGC  0.0939 ± 0.12
137. AAATCCGC  0.0994 ± 0.0043
138. TGCTTACA  0.1 ± 0.0065
139. GATCAGCA  0.114 ± 0.08
140. CACCACCC  0.12 ± 0.1
141. ATACGCAG  0.122 ± 0.033
142. ACGCTTCT  0.124 ± 0.0055
143. GAGAAGGC  0.124 ± 0.023
144. AGATAGCG  0.129 ± 0.024
145. GTGCCGCA  0.132 ± 0.044
146. CGAGAGCC  0.136 ± 0.053
147. GGTGCAGA  0.14 ± 0.056
148. ACAATTCG  0.141 ± 0.029
149. AACAATGT  0.142 ± 0.038
150. AAGCTCGC  0.143 ± 0.0032
151. GTGCGTAA  0.152 ± 0.011
152. CGTGAGTA  0.155 ± 0.037
153. CACCAAAG  0.166 ± 0.048
154. GTTTGCAA  0.168 ± 0.033
155. CACTGTAA  0.17 ± 0.014
156. CGCTGCAC  0.171 ± 0.0084
157. ACGGCACC  0.173 ± 0.0075
158. AACCTGTG  0.179 ± 0.038
159. CCTAGTCG  0.183 ± 0.044
160. TCACCACA  0.1938 ± 0.0015
161. ATTGTCAA  0.225 ± 0.019
162. CTGTTAAA  0.231 ± 0.041
163. AAAAGCGC  0.237 ± 0.065
164. TAACGCTA  0.237 ± 0.031
165. CACGCCCC  0.24 ± 0.013
166. CACTTTGC  0.253 ± 0.0037
167. CTGCACAC  0.265 ± 0.025
168. ACACTAGT  0.272 ± 0.042
169. AATTGACA  0.296 ± 0.011
170. GCCAACAC  0.351 ± 0.0088
171. CTGACACA  0.356 ± 0.022
172. CGAGGTGA  0.418 ± 0.01
